# According to the supplement of paper PMC8728848:
# The list shows a part of the results.
# B1: MIC13 (Toxoplasma gondii), A0A125YWL1 (protein)
# chain: IQLRQHRNGLGVEQSFVSEETDIVGGRISSLQAELDSYCHNRYKQLCDGGNKKFCDKTGVARYGTGIQSQQTAEWRCYFAEVLKPSGRKVQCVDDCGNYFPCLGVVDPNDTFHATAHNQILNFIKDGVEKHCSPFQMAGNNYCQGVLADTVARKDTGTASQKAKAWRCYKKDSLTYEARSICVDNCGGEIECPGGRSETSGELLSQHYTREKELQKVIESQSAPCHDACVATPINPPICADTESLLQSTKRSRAQRFIDDACQKLFNCHCKKDKKFCTTVVARKDRGRAGSQNDAEWRCYSLEELDFQKTNPSCIDECGNELPCQGAVPEESTHHITWTKLPSKIDEATQKFCTERQRAANDYCASEFADSLARYGPGAGDQTSQFRCIKKAAMRADAEGQCADSCKGTETCGGGRSRLDGPLSVDDVLNAHEGISEAMKSASTEC
# How the values were obtained:
# Experiment in all cases: glycan array binding signal (z-score within array); higher = stronger binding
# Conditions in all cases: glycan notation: IUPAC condensed, linker removed
# [1] = biological target: Fuc(a1-3)[Gal(b1-4)]GlcNAc(b1-3)Gal(b1-4)Glc
# Procedure, shortened: (§1)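 The Consortium for Functional Glycomics database supplied 3228 glycan arrays, of which those lacking an available protein sequence were dropped. The binding signal, a within-array Z-score, was averaged across arrays of the same protein sequence and across linkers. Negative scores can be read as non-binding.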
# [2] = biological target: Gal(b1-3)GalNAc(b1-4)[Neu5Ac(a2-3)]Gal(b1-4)Glc
# Procedure, shortened: as §1
# [3] = biological target: Gal(b1-3)GalNAc(b1-4)[Neu5Gc(a2-3)]Gal(b1-4)Glc
# Procedure, shortened: as §1
# [4] = biological target: Gal(b1-3)GlcNAc(b1-3)Gal(b1-4)Glc
# Procedure, shortened: as §1
# [5] = biological target: Gal(b1-3)GlcNAc(b1-3)[Gal(b1-4)GlcNAc(b1-6)]Gal(b1-4)Glc
# Procedure, shortened: as §1
# [6] = biological target: Gal(b1-3)[Neu5Ac(a2-6)]GlcNAc(b1-3)Gal(b1-4)Glc
# Procedure, shortened: as §1
# Gal(b1-4)GlcNAc = biological target: Gal(b1-4)GlcNAc
# Procedure, shortened: as §1
# [7] = biological target: Gal(b1-4)GlcNAc(b1-2)Man(a1-3)[Gal(b1-4)GlcNAc(b1-2)Man(a1-6)]Man(b1-4)GlcNAc(b1-4)GlcNAc
# Procedure, shortened: as §1
# [8] = biological target: Gal(b1-4)GlcNAc(b1-3)Gal(b1-4)Glc
# Procedure, shortened: as §1
# Neu(a2-3)Gal(b1-4)Glc = biological target: Neu(a2-3)Gal(b1-4)Glc
# Procedure, shortened: as §1
# [9] = biological target: Neu(a2-3)Gal(b1-4)GlcNAc(b1-3)Gal(b1-4)[Fuc(a1-3)]GlcNAc(b1-3)Gal(b1-4)Glc
# Procedure, shortened: as §1
# [10] = biological target: Neu(a2-3)Gal(b1-4)GlcNAc6S(b1-3)Gal(b1-4)Glc
# Procedure, shortened: as §1
# [11] = biological target: Neu(a2-3)Gal(b1-4)[Fuc(a1-3)]GlcNAc(b1-3)Gal(b1-4)Glc
# Procedure, shortened: as §1
# [12] = biological target: Neu(a2-3)Gal(b1-4)[Fuc(a1-3)]GlcNAc6S(b1-3)Gal(b1-4)Glc
# Procedure, shortened: as §1
# [13] = biological target: Neu(a2-3)Gal6S(b1-4)[Fuc(a1-3)]GlcN(b1-3)Gal(b1-4)Glc
# Procedure, shortened: as §1
# Neu(a2-6)Gal(b1-4)Glc = biological target: Neu(a2-6)Gal(b1-4)Glc
# Procedure, shortened: as §1
# [14] = biological target: Neu4Ac5Ac(a2-3)Gal(b1-4)Glc
# Procedure, shortened: as §1
# Neu5Ac(a2-3)Gal = biological target: Neu5Ac(a2-3)Gal
# Procedure, shortened: as §1
# [15] = biological target: Neu5Ac(a2-3)Gal(b1-3)GalNAc(b1-4)Gal(b1-4)Glc
# Procedure, shortened: as §1
# [16] = biological target: Neu5Ac(a2-3)Gal(b1-3)GalNAc(b1-4)[Neu5Ac(a2-3)]Gal(b1-4)Glc
# Procedure, shortened: as §1
# [17] = biological target: Neu5Ac(a2-3)Gal(b1-3)GalNAc(b1-4)[Neu5Ac(a2-8)Neu5Ac(a2-3)]Gal(b1-4)Glc
# Procedure, shortened: as §1
# [18] = biological target: Neu5Ac(a2-3)Gal(b1-3)GlcNAc
# Procedure, shortened: as §1
# [19] = biological target: Neu5Ac(a2-3)Gal(b1-3)GlcNAc(b1-3)Gal(b1-4)Glc
# Procedure, shortened: as §1
# [20] = biological target: Neu5Ac(a2-3)Gal(b1-3)GlcNAc(b1-3)[Fuc(a1-3)[Gal(b1-4)]GlcNAc(b1-6)]Gal(b1-4)Glc
# Procedure, shortened: as §1
# [21] = biological target: Neu5Ac(a2-3)Gal(b1-3)[Fuc(a1-4)]GlcNAc
# Procedure, shortened: as §1
# [22] = biological target: Neu5Ac(a2-3)Gal(b1-3)[Fuc(a1-4)]GlcNAc(b1-3)Gal(b1-4)Glc
# Procedure, shortened: as §1
# [23] = biological target: Neu5Ac(a2-3)Gal(b1-3)[Neu5Ac(a2-6)]GalNAc
# Procedure, shortened: as §1
# [24] = biological target: Neu5Ac(a2-3)Gal(b1-3)[Neu5Ac(a2-6)]GlcNAc(b1-3)Gal(b1-4)Glc
# Procedure, shortened: as §1
# Neu5Ac(a2-3)Gal(b1-4)Glc = biological target: Neu5Ac(a2-3)Gal(b1-4)Glc
# Procedure, shortened: as §1
# [25] = biological target: Neu5Ac(a2-3)Gal(b1-4)GlcNAc
# Procedure, shortened: as §1
# [26] = biological target: Neu5Ac(a2-3)Gal(b1-4)GlcNAc(b1-2)Man(a1-3)[Neu5Ac(a2-3)Gal(b1-4)GlcNAc(b1-2)Man(a1-6)]Man(b1-4)GlcNAc(b1-4)[Fuc(a1-6)]GlcNAc
# Procedure, shortened: as §1
# [27] = biological target: Neu5Ac(a2-3)Gal(b1-4)GlcNAc(b1-3)Gal(b1-4)Glc
# Procedure, shortened: as §1
# [28] = biological target: Neu5Ac(a2-3)Gal(b1-4)GlcNAc6S(b1-3)Gal6S(b1-3)GlcNAc6S
# Procedure, shortened: as §1
# [29] = biological target: Neu5Ac(a2-3)Gal(b1-4)[Fuc(a1-3)]GlcNAc
# Procedure, shortened: as §1
# [30] = biological target: Neu5Ac(a2-3)Gal(b1-4)[Fuc(a1-3)]GlcNAc(b1-3)Gal
# Procedure, shortened: as §1
# [31] = biological target: Neu5Ac(a2-3)Gal(b1-4)[Fuc(a1-3)]GlcNAc(b1-3)Gal(b1-4)Glc
# Procedure, shortened: as §1
binder,measurement,setting,value
B1,glycan array binding signal (z-score),[1],-0.287
same,glycan array binding signal (z-score),[2],-0.287
same,glycan array binding signal (z-score),[3],-0.151
same,glycan array binding signal (z-score),[4],-0.287
same,glycan array binding signal (z-score),[5],-0.287
same,glycan array binding signal (z-score),[6],-0.287
same,glycan array binding signal (z-score),Gal(b1-4)GlcNAc,-0.287
same,glycan array binding signal (z-score),[7],-0.287
same,glycan array binding signal (z-score),[8],-0.287
same,glycan array binding signal (z-score),Neu(a2-3)Gal(b1-4)Glc,-0.234
same,glycan array binding signal (z-score),[9],-0.273
same,glycan array binding signal (z-score),[10],-0.287
same,glycan array binding signal (z-score),[11],-0.287
same,glycan array binding signal (z-score),[12],-0.287
same,glycan array binding signal (z-score),[13],-0.287
same,glycan array binding signal (z-score),Neu(a2-6)Gal(b1-4)Glc,-0.287
same,glycan array binding signal (z-score),[14],0.24
same,glycan array binding signal (z-score),Neu5Ac(a2-3)Gal,-0.287
same,glycan array binding signal (z-score),[15],-0.287
same,glycan array binding signal (z-score),[16],0.447
same,glycan array binding signal (z-score),[17],0.21
same,glycan array binding signal (z-score),[18],0.678
same,glycan array binding signal (z-score),[19],-0.258
same,glycan array binding signal (z-score),[20],-0.243
same,glycan array binding signal (z-score),[21],0.984
same,glycan array binding signal (z-score),[22],-0.287
same,glycan array binding signal (z-score),[23],0.23
same,glycan array binding signal (z-score),[24],-0.022
same,glycan array binding signal (z-score),Neu5Ac(a2-3)Gal(b1-4)Glc,-0.183
same,glycan array binding signal (z-score),[25],0.782
same,glycan array binding signal (z-score),[26],-0.196
same,glycan array binding signal (z-score),[27],-0.287
same,glycan array binding signal (z-score),[28],1.08
same,glycan array binding signal (z-score),[29],0.174
same,glycan array binding signal (z-score),[30],-0.287
same,glycan array binding signal (z-score),[31],-0.287
